This data set has as its system ATP. The data set is described as follows: switch fluorescence ratio, 500 uM ATP over buffer (Cy3 cluster intensity, sum of 5 cycles each) (fold (ratio)); higher = stronger signal-on switching upon ATP binding; sequences stand for … in TCGTCGGCAGCGTCAGATGTGTATAAGAGACAGTTTTTTTTTTTTTTTTTTTTTTTTT…TC. To be noted: aptamer strand: ATP DNA aptamer (quencher-CACCTGGGGGAGTATTGCGGAGGAAGG + anchor), 100 nM annealed; ATP concentration: 500 uM; one replicate. An outline of the steps: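 Between each of five buffer/ATP cycles, the flow-cell was stripped with NaOH and re-annealed. Each cycle imaged Cy3-labelled switching-strand clusters, annealed to 100 nM quencher-labelled ATP aptamer on a modified Illumina MiSeq flow-cell, first in selection buffer and then after 15 min with 500 uM ATP at 22 °C. The fluorescence ratio is summed target-cycle over summed buffer-cycle Cy3 intensity per cluster, averaged per switch-domain sequence, with clusters outside 100-1000 RFU excluded.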

Sequences with one replicate were seen in a single cluster, so their values are uncertain.
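Further: ATP exposure 15 min at 22 °C before imaging.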

On to ACGTCCTTCA, for which the switch fluorescence ratio was 1.34.
For TGCTGTGAGT, the switch fluorescence ratio was 0.981.
To GCAAATGCAA belongs 0.979; to ATACTCCGGT, 1.2.
Next, AGTGGCACTA: 1.01; TAGGTCAAT: 1.02; GCTAACGTGT: 0.985.
Next, GTACTTTTCA: 0.958; TGTTGGCCTT: 0.968; CTTAGTTCAA: 0.961.
In the case of TCCCGTTCCC, the switch fluorescence ratio turned out to be 1.04.
Next, AGAGGGAGGG: 0.998.
To ACTGGCATGC belongs 1.04; to GCCCGCGTGA, 1.16.
As for ATATTTACGT, the switch fluorescence ratio is 1.38.
On to GTTAGACATT, for which the switch fluorescence ratio is 0.97.
As for GCTGCCAGTA, the switch fluorescence ratio stood at 1.04.
To GCTGTCAGGT belongs 1.01; to GGATGGACGG, 1.
With GGCTTGAAGT, the switch fluorescence ratio turned out to be 1.
To GATCTCACTC belongs 1.06; to TAAATGTCCG, 1.03.
Next, CTGTAGACAA: 3.27.
As to CCCTCGTCCG, the switch fluorescence ratio stood at 1.19.
Next, TGCGAACCGG: 1.03; CGCTTGATTT: 1.06.
To ACTGTCACCC belongs 1.31; to TTCTCGGGCG, 0.965.
For CGCATAGCTC, the switch fluorescence ratio was determined as 3.82.
As for AGCTATGATG, the switch fluorescence ratio worked out at 1.01.
Next, CCTTTGAGCC: 1.22; TCCTTTTGTG: 0.953; ACTACATAAT: 1.06.
With CGCACGCACC, the switch fluorescence ratio came to 1.91.
Take ACGGGGAATT: the switch fluorescence ratio came out at 1.11.
Turning to TATGCTCCGA, the switch fluorescence ratio was determined as 1.07.
In the case of CGATCGTCAA, the switch fluorescence ratio worked out at 3.51.
Next, CTCAGATGTG: 0.966; TTCTAGAACG: 0.997; CCAAAACGTC: 1.01.
For AATAGCCGGT, the switch fluorescence ratio amounted to 1.01.
Next, AGAGCATGCC: 1.05; GGGCTCCTGG: 1.01; CCCACTGTGG: 1.03.
Next, GCTGTACTG: 1.03; TTGGTATCGC: 1.02.
For TACAATCGAA, the switch fluorescence ratio was determined as 0.977.
To ATCCTGGGGA belongs 0.999; to GTGGTATGTT, 1.
As to GCCAGAAACG, the switch fluorescence ratio is 1.01.
To CCTCCAAGGG belongs 2.69; to CCTGGTTATC, 1.11.
Regarding AGGTAGGGAT, the switch fluorescence ratio is 1.15.
Regarding AAGTCCTTAT, the switch fluorescence ratio is 0.977.
As to AACCACAAGA, the switch fluorescence ratio turned out to be 1.05.
As for CAATTATCTA, the switch fluorescence ratio was 0.976.
As for TATAAGAAC, the switch fluorescence ratio amounted to 1.05.
To AACTGGGCGT belongs 1.03; to CACCATCC, 1.55; to TCGAAGCAGT, 3.64.
Turning to GCCTGGGTAA, the switch fluorescence ratio stood at 0.999.
On to TTTATTTCAA, for which the switch fluorescence ratio stood at 0.96.
Next, TTAGTGCAGA: 1.02; GATAGCCCTC: 0.967; CTGTTGAACT: 0.994.
On to TTCGATGAAT, for which the switch fluorescence ratio came out at 1.02.
As to CCTGAGGCAA, the switch fluorescence ratio worked out at 3.36.
